This is one part of the list. Single values are uncertain, as repeats are few or missing.
These compounds were tested on SkMel28 (assay: cell count relative to DMSO control; melanoma cells; higher = more viable cells). Details: library dose: standard library concentration; 72 h.
`Clc1ccc(Nc2nnc(Cc3ccncc3)c3ccccc23)cc1` [vatalanib] + O=S(=O)(c1ccccc1)N(CC(F)(F)F)c1ccc(C(O)(C(F)(F)F)C(F)(F)F)cc1 [T0901317] (first compound 10 µM, partner dose 7 µM) was tested, and the cell count was 54.8%.
`Clc1ccc(Nc2nnc(Cc3ccncc3)c3ccccc23)cc1` [vatalanib] + Oc1cc(-c2nc(-c3ccccc3)[nH]c2-c2ccncc2)ccc1Cl [L779450] (first compound 10 µM, partner dose 1 µM) gave a cell count of 44.8%.
Work on `OCc1c[nH]c2ccccc12` [Indole-3-carbinol] + O=S(=O)(c1ccccc1)N(CC(F)(F)F)c1ccc(C(O)(C(F)(F)F)C(F)(F)F)cc1 [T0901317] (first compound 4 µM, partner dose 7 µM) yielded a cell count of 97.2%.
Compound `Clc1ccc(Nc2nnc(Cc3ccncc3)c3ccccc23)cc1` [vatalanib] + COC(=O)c1sccc1S(=O)(=O)Nc1ccc(Nc2ccccc2)cc1OC [GSK0660] (first compound 10 µM, partner dose 5 µM) has a cell count of 68.5%.
In the case of `OCc1c[nH]c2ccccc12` [Indole-3-carbinol] + NCC(=O)Nc1ccc(-n2nc(C(F)(F)F)cc2-c2ccc3c(ccc4ccccc43)c2)cc1 [OSU03012] (first compound 4 µM, partner dose 5 µM), the cell count is reported as 19.4%.
Work on `Clc1ccc(Nc2nnc(Cc3ccncc3)c3ccccc23)cc1` [vatalanib] + CCN(CC)CCCCNc1ncc2cc(-c3cc(OC)cc(OC)c3)c(NC(=O)NC(C)(C)C)nc2n1 [PD173074] (first compound 10 µM, partner dose 0.5 µM) yielded a cell count of 84%.
`OCc1c[nH]c2ccccc12` [Indole-3-carbinol] + CC(C)CCN1c2nc(Nc3cc(F)c(O)c(F)c3)ncc2N(C)C(=O)C1C [BID1870] (first compound 4 µM, partner dose 1 µM) showed a cell count of 57%.
`OCc1c[nH]c2ccccc12` [Indole-3-carbinol] + O=C(O)C(=O)Nc1sc2c(c1C(=O)O)CCNC2 [TCS401] (first compound 4 µM, partner dose 8.33333 µM) showed a cell count of 66.6%.
For `Clc1ccc(Nc2nnc(Cc3ccncc3)c3ccccc23)cc1` [vatalanib] + COc1cc(N2CCC(N3CCN(C)CC3)CC2)ccc1Nc1ncc(Cl)c(Nc2ccccc2S(=O)(=O)C(C)C)n1 [NVP-TAE684] (first compound 10 µM, partner dose 0.4 µM), the cell count was 72.7%.
For `OCc1c[nH]c2ccccc12` [Indole-3-carbinol] + COc1ccc2c(c1)CCC1C2CCC2(C)C(NCCCCCCN3C(=O)C=CC3=O)CCC12 [U73122] (first compound 4 µM, partner dose 2 µM), the cell count was 87.8%.
In the case of `OCc1c[nH]c2ccccc12` [Indole-3-carbinol] + N#Cc1c(O)c2c(-c3ccc(-c4ccccc4O)cc3)csc2[nH]c1=O [A769662] (first compound 4 µM, partner dose 10 µM), the cell count is reported as 97.5%.
`OCc1c[nH]c2ccccc12` [Indole-3-carbinol] + CCN(CC)CCCCNc1ncc2cc(-c3cc(OC)cc(OC)c3)c(NC(=O)NC(C)(C)C)nc2n1 [PD173074] (first compound 4 µM, partner dose 0.5 µM) showed a cell count of 116%.
Compound `OCc1c[nH]c2ccccc12` [Indole-3-carbinol] + Oc1cc(-c2nc(-c3ccccc3)[nH]c2-c2ccncc2)ccc1Cl [L779450] (first compound 4 µM, partner dose 1 µM) has a cell count of 49.9%.
Compound `Clc1ccc(Nc2nnc(Cc3ccncc3)c3ccccc23)cc1` [vatalanib] + O=c1cc(-c2cccc3c2Sc2ccccc2S3)oc(N2CCOCC2)c1 [KU55933] (first compound 10 µM, partner dose 5 µM) has a cell count of 71.8%.
With `OCc1c[nH]c2ccccc12` [Indole-3-carbinol] + O=C1NC(=O)/C(=C/c2ccc(-c3ccc(F)cc3O)o2)S1 [AS252424] (first compound 4 µM, partner dose 5 µM) the cell count was 71.9%.
`OCc1c[nH]c2ccccc12` [Indole-3-carbinol] + CCc1ccc(CCOc2ccc(CC3SC(=O)NC3=O)cc2)nc1 [pioglitazone] (first compound 4 µM, partner dose 10 µM) showed a cell count of 76.9%.
`OCc1c[nH]c2ccccc12` [Indole-3-carbinol] + COc1ccc(-c2ccc3c(N4CCOCC4)nc(N4C[C@@H](C)O[C@@H](C)C4)nc3n2)cc1CO [KU0063794] (first compound 4 µM, partner dose 0.1 µM) showed a cell count of 82%.
`OCc1c[nH]c2ccccc12` [Indole-3-carbinol] + CCCCCCCCCCCC1=C(O)C(=O)C=C(O)C1=O [Embelin] (first compound 4 µM, partner dose 6 µM) showed a cell count of 29.5%.
With `Clc1ccc(Nc2nnc(Cc3ccncc3)c3ccccc23)cc1` [vatalanib] + CCCCCCCCCCCC1=C(O)C(=O)C=C(O)C1=O [Embelin] (first compound 10 µM, partner dose 6 µM) the cell count was 75.9%.
With `Clc1ccc(Nc2nnc(Cc3ccncc3)c3ccccc23)cc1` [vatalanib] + c1cc(-c2cnn3cc(-c4ccc(OCCN5CCCCC5)cc4)cnc23)ccn1 [Dorsomorphin] (first compound 10 µM, partner dose 2 µM) the cell count was 26%.
`Clc1ccc(Nc2nnc(Cc3ccncc3)c3ccccc23)cc1` [vatalanib] + CCc1ccc(CCOc2ccc(CC3SC(=O)NC3=O)cc2)nc1 [pioglitazone] (first compound 10 µM, partner dose 10 µM) was tested, and the cell count was 69.2%.
`OCc1c[nH]c2ccccc12` [Indole-3-carbinol] + COC(=O)c1sccc1S(=O)(=O)Nc1ccc(Nc2ccccc2)cc1OC [GSK0660] (first compound 4 µM, partner dose 5 µM) showed a cell count of 79%.
With `Clc1ccc(Nc2nnc(Cc3ccncc3)c3ccccc23)cc1` [vatalanib] + O=C(Nc1ccccc1)c1cc([N+](=O)[O-])ccc1Cl [GW9662] (first compound 10 µM, partner dose 10 µM) the cell count was 60.5%.
In the case of `OCc1c[nH]c2ccccc12` [Indole-3-carbinol] + c1cc(-c2cnn3cc(-c4ccc(OCCN5CCCCC5)cc4)cnc23)ccn1 [Dorsomorphin] (first compound 4 µM, partner dose 2 µM), the cell count is reported as 89.6%.
For `OCc1c[nH]c2ccccc12` [Indole-3-carbinol] + O=c1cc(-c2cccc3c2Sc2ccccc2S3)oc(N2CCOCC2)c1 [KU55933] (first compound 4 µM, partner dose 5 µM), the cell count was 76.3%.
`OCc1c[nH]c2ccccc12` [Indole-3-carbinol] + COc1cc2ncnc(Nc3ccc(Oc4ccccc4)cc3)c2cc1OC [SrcI1] (first compound 4 µM, partner dose 10 µM) gave a cell count of 66.5%.
Compound `OCc1c[nH]c2ccccc12` [Indole-3-carbinol] + Cn1cc(/C=C2\C(=O)Nc3cccnc32)c2ccccc21 [GW441756] (first compound 4 µM, partner dose 2 µM) has a cell count of 85.4%.
`OCc1c[nH]c2ccccc12` [Indole-3-carbinol] + Oc1nc(-c2ccc(C(F)(F)F)cc2)nc2c1CSCC2 [XAV939] (first compound 4 µM, partner dose 10 µM) gave a cell count of 82.1%.
`Clc1ccc(Nc2nnc(Cc3ccncc3)c3ccccc23)cc1` [vatalanib] + N#Cc1c(O)c2c(-c3ccc(-c4ccccc4O)cc3)csc2[nH]c1=O [A769662] (first compound 10 µM, partner dose 10 µM) was tested, and the cell count was 80.6%.
`Clc1ccc(Nc2nnc(Cc3ccncc3)c3ccccc23)cc1` [vatalanib] + O=C(O)C(=O)Nc1sc2c(c1C(=O)O)CCNC2 [TCS401] (first compound 10 µM, partner dose 8.33333 µM) showed a cell count of 85.8%.
`Clc1ccc(Nc2nnc(Cc3ccncc3)c3ccccc23)cc1` [vatalanib] + COc1ccc(-c2ccc3c(N4CCOCC4)nc(N4C[C@@H](C)O[C@@H](C)C4)nc3n2)cc1CO [KU0063794] (first compound 10 µM, partner dose 0.1 µM) was tested, and the cell count was 72.8%.
`Clc1ccc(Nc2nnc(Cc3ccncc3)c3ccccc23)cc1` [vatalanib] + CC(C)CCN1c2nc(Nc3cc(F)c(O)c(F)c3)ncc2N(C)C(=O)C1C [BID1870] (first compound 10 µM, partner dose 1 µM) showed a cell count of 65.6%.
In the case of `OCc1c[nH]c2ccccc12` [Indole-3-carbinol] + O=C(Nc1ccccc1)c1cc([N+](=O)[O-])ccc1Cl [GW9662] (first compound 4 µM, partner dose 10 µM), the cell count is reported as 86.1%.
For `Clc1ccc(Nc2nnc(Cc3ccncc3)c3ccccc23)cc1` [vatalanib] + Oc1nc(-c2ccc(C(F)(F)F)cc2)nc2c1CSCC2 [XAV939] (first compound 10 µM, partner dose 10 µM), the cell count was 72.5%.
`Clc1ccc(Nc2nnc(Cc3ccncc3)c3ccccc23)cc1` [vatalanib] + O=C1NC(=O)/C(=C/c2ccc(-c3ccc(F)cc3O)o2)S1 [AS252424] (first compound 10 µM, partner dose 5 µM) showed a cell count of 82.6%.
`Nc1cccc2c1CN(C1CCC(=O)NC1=O)C2=O` (stereo unspecified) [lenalidomide] + COc1cc2c(Oc3ccc4[nH]c(C)cc4c3F)ncnc2cc1OCCCN1CCCC1 [cediranib] (first compound 5 µM, partner dose 2 µM) gave a cell count of 89.3%.

— the supplement of paper PMC4604168 (melanoma cell lines)
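Note: cells treated in 1,536-well plates, then fixed and DAPI-stained, with nuclei counted from automated high-throughput microscope images.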
